Laboratory results taken from the supplement of paper PMC10600219.
Structures can show the parent of a compound that is named as a salt. The full ranking holds about 2,800 compounds; the median of “cell viability relative to vehicle” is about 0.98, and the lowest 2% start at about 0.45. Some of the results follow.

These molecules were tested on NCI-H2228 alectinib-DTP (assay: cell viability relative to vehicle (fraction of vehicle); NCI-H2228 is an ALK-positive lung cancer line and DTP means drug-tolerant persister; higher = less growth inhibition). Details: 100 nM; treatment time 6 days.
Procedure, shortened: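 NCI-H2228 parental cells and drug-tolerant persister cells were plated in 384-well plates; the persisters had been generated with 1000 nM of a targeted drug over 13 days. One day later, the 3114-agent TargetMol anti-cancer compound library was added at 100 nM, with DMSO serving as vehicle. ATP was measured 6 days after that using the CellTiter-Glo 3D Cell Viability Assay. Values are cell viability expressed relative to vehicle-treated cells.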
In the case of `CCCCc1nc2ccc(NC(=O)NC3CCCCC3)cc2n1Cc1ccc(-c2ccccc2C(=O)O)cc1`, the cell viability is reported as 1.16.
With `CO[C@@H]1[C@@H](OC(N)=O)[C@@H](O)[C@H](Oc2ccc3c(O)c(NC(=O)c4ccc(O)c(CC=C(C)C)c4)c(=O)oc3c2C)OC1(C)C` [Novobiocin Sodium] the cell viability was 1.18.
Molecule `CN(NC(=O)CC(=O)NN(C)C(=S)c1ccccc1)C(=S)c1ccccc1` [Elesclomol] has a cell viability of 0.8.
Molecule `O=C(O[C@H]1CN2CCC1CC2)N1CCc2ccccc2[C@@H]1c1ccccc1` [Solifenacin succinate] has a cell viability of 0.949.
`NC(=O)N/N=C/c1ccc([N+](=O)[O-])o1` [Furacilin] gave a cell viability of 1.14.
Work on `O=S(=O)(c1ccccc1)c1cnc2c(N3CCNCC3)cccc2c1` yielded a cell viability of 0.902.
`COc1ccc(C2(CNC(=O)c3ccc(NC(=O)c4ccco4)cc3)CCOCC2)cc1` was tested, and the cell viability was 0.919.
`CC(C)C[C@H](NC(=O)[C@H](CCc1ccccc1)NC(=O)CN1CCOCC1)C(=O)N[C@@H](Cc1ccccc1)C(=O)N[C@@H](CC(C)C)C(=O)[C@@]1(C)CO1` [Carfilzomib] showed a cell viability of 0.116.
With `COc1cc(OC)c(C=C2C(=O)Nc3ccccc32)c(OC)c1` the cell viability was 0.882.
In the case of `CN1CCCC(n2nc(Cc3ccc(Cl)cc3)c3ccccc3c2=O)CC1` (stereo unspecified) [Azelastine hydrochloride], the cell viability is reported as 1.03.
Molecule `COC(=O)C1=CO[C@@H](O[C@@H]2O[C@H](CO)[C@@H](O)[C@H](O)[C@H]2O)[C@@H]2[C@@H](C)[C@@H](O)C[C@H]12` [Loganin] has a cell viability of 1.02.
`N[C@H]1C(O)O[C@H](CO)[C@@H](O)[C@@H]1O` (stereo partly specified) [Glucosamine] was tested, and the cell viability was 1.16.
With `COC1=CC(c2cc3ccccc3[nH]2)=N/C1=C\c1[nH]c(C)cc1C` [Obatoclax Mesylate] the cell viability was 0.904.
`CC(C)C[C@@H](C=O)NC(=O)[C@H](CC(C)C)NC(=O)[C@H](CC(C)C)NC(=O)OCc1ccccc1` showed a cell viability of 0.489.
With `CC(C)(C#N)c1ccc(N2C(=O)OCc3cnc4ccc(-c5cnc6ccccc6c5)cc4c32)cc1` the cell viability was 0.925.
For `CCN(CC)Cc1ccc2cc(COC(=O)Nc3ccc(C(=O)NO)cc3)ccc2c1` [Givinostat hydrochloride monohydrate], the cell viability was 0.963.
`CC(=O)Oc1cccc2c1C(=O)c1c(OC(C)=O)cc(C(=O)O)cc1C2=O` [Diacerein] was tested, and the cell viability was 1.05.
Work on `CCOC(=O)c1ccc(OCCC2CCN(c3ccc(C)nn3)CC2)cc1` [Pirodavir] yielded a cell viability of 0.959.
In the case of `O=C(Nc1ncc([N+](=O)[O-])s1)c1ccccc1O` [Tizoxanide], the cell viability is reported as 0.88.
`N=C(N)NC(=N)N1CCOCC1` [Moroxydine hydrochloride] showed a cell viability of 0.951.
For `Nc1ccc(C(=O)NCC(=O)O)cc1` [4-Aminohippuric Acid], the cell viability was 0.954.
`C[C@H](NC(=O)CCC(F)(F)F)C(=O)N[C@@H]1C(=O)N(CCO)c2ncccc2-c2ccccc21` [Crenigacestat] showed a cell viability of 0.963.
In the case of `Fc1ccc(-c2nc3n(c2-c2ccncc2)CCS3)cc1`, the cell viability is reported as 0.953.
`O=c1c(-c2ccc(O)cc2)coc2cc(O[C@@H]3O[C@H](CO)[C@@H](O)[C@H](O)[C@H]3O)cc(O)c12` [Genistin] gave a cell viability of 1.07.
Molecule `Cn1ncc(Cl)c1-c1cc(C(=O)N[C@H](CN)Cc2ccc(F)c(F)c2)oc1Cl` [Uprosertib] has a cell viability of 0.752.
In the case of `CCCCNNC(=O)c1ccc(Br)cc1`, the cell viability is reported as 0.962.
`CN(C)CCc1c[nH]c2ccc(Cn3cncn3)cc12` [Rizatriptan benzoate] gave a cell viability of 0.824.
With `COc1ccc(C[C@@H]2c3cc(Oc4cc(C[C@@H]5c6cc(O)c(OC)cc6CCN5C)ccc4O)c(OC)cc3CCN2C)cc1` [Isoliensinine] the cell viability was 1.
In the case of `OCCN1CCN(CCCN2c3ccccc3Sc3ccc(Cl)cc32)CC1` [Perphenazine], the cell viability is reported as 1.05.
In the case of `OC[C@H]1O[C@@H](Oc2ccc(O)cc2)[C@H](O)[C@@H](O)[C@@H]1O` [Arbutin], the cell viability is reported as 1.04.
With `O=C(c1ccc(C(=O)N2CCC(N3CCCC3)CC2)c(Nc2ccccc2)c1)N1CCC(N2CCCC2)CC1` the cell viability was 1.
With `N#CCC1(n2cc(-c3ncnc4[nH]ccc34)cn2)CN(C2CCN(C(=O)c3ccnc(C(F)(F)F)c3F)CC2)C1` [Itacitinib] the cell viability was 1.07.
`COc1cc2c3cc1Oc1c(OC)c(OC)cc4c1[C@@H](Cc1ccc(O)c(c1)Oc1ccc(cc1)C[C@@H]3N(C)CC2)N(C)CC4` [Berbamine] was tested, and the cell viability was 1.09.
With `CCOC(=O)Nc1cc(-c2ccc(C)c(NS(C)(=O)=O)c2)nn2c(C)nnc12` [Bromosporine] the cell viability was 0.922.
With `Cc1cc2c(F)c(Oc3ncnn4cc(OC[C@@H](C)OC(=O)[C@H](C)N)c(C)c34)ccc2[nH]1` [Brivanib Alaninate] the cell viability was 0.933.
With `O=c1[nH]c(=O)n(C2CCCO2)cc1F` (stereo unspecified) [Tegafur] the cell viability was 0.871.
`C[C@@H]1CCN(C(=O)CC#N)C[C@@H]1N(C)c1ncnc2[nH]ccc12` [Tofacitinib] gave a cell viability of 0.854.
Molecule `Cc1c(N(C)CS(=O)(=O)O)c(=O)n(-c2ccccc2)n1C` [Analgin] has a cell viability of 1.03.
`CCCCNNC(=O)c1ccc(-c2cccc(F)c2F)cc1` was tested, and the cell viability was 1.05.
In the case of `COC(=O)C1=CC[C@@]23CC[C@@H]([C@@](C)(/C=C/C=C(\C)C(=O)O)OC2=O)[C@@]3(OC(C)=O)CC1` [Pseudolaric Acid B], the cell viability is reported as 0.988.
`CN1C(=O)C(C)(C)Oc2c(-c3cn(C)c(=O)c4[nH]ccc34)cc(S(C)(=O)=O)cc21` showed a cell viability of 0.84.
`CCc1cn([C@H]2C[C@H](O)[C@@H](CO)O2)c(=O)[nH]c1=O` [Edoxudine] was tested, and the cell viability was 1.01.
`CO[C@]1(CC[C@@H](C)CO[C@@H]2O[C@H](CO)[C@@H](O)[C@H](O)[C@H]2O)O[C@H]2C[C@H]3[C@@H]4CC=C5C[C@@H](O[C@@H]6O[C@H](CO)[C@@H](O[C@@H]7O[C@@H](C)[C@H](O)[C@@H](O)[C@H]7O)[C@H](O)[C@H]6O[C@@H]6O[C@@H](C)[C@H](O)[C@@H](O)[C@H]6O)CC[C@]5(C)[C@H]4CC[C@]3(C)[C@H]2[C@@H]1C` [Methyl protodioscin] showed a cell viability of 1.02.
`COCC[n+]1c2c(n(Cc3cnccn3)c1C)C(=O)c1ccccc1C2=O` gave a cell viability of 0.0756.
`O=C(NCCO)c1cccc(-c2cc(Nc3ccc(OC(F)(F)F)cc3)ncn2)c1` showed a cell viability of 0.954.
In the case of `CNCC(O)c1ccc(OC(=O)C(C)(C)C)c(OC(=O)C(C)(C)C)c1` (stereo unspecified) [Dipivefrin hydrochloride], the cell viability is reported as 0.969.
For `CCCOc1ccn2c(C(C)=O)cc(-c3ccccc3S(C)(=O)=O)c2c1`, the cell viability was 0.959.
For `O=C1c2ccccc2C(=O)c2c1ccc(O)c2O` [Alizarin], the cell viability was 1.24.
In the case of `Cc1nc(=O)c2cc(CN(C)c3ccc(C(=O)N[C@@H](CCC(=O)O)C(=O)O)s3)ccc2[nH]1` [Raltitrexed], the cell viability is reported as 0.688.
With `CN(C)C[C@@H]1CCn2cc(c3ccccc32)C2=C(C(=O)NC2=O)c2cn(c3ccccc23)CCO1` [Ruboxistaurin hydrochloride] the cell viability was 1.02.
Work on `CS(=O)(=O)N1CCc2c(-c3cnc(N)nc3)nc(N3CCOCC3)nc21` yielded a cell viability of 0.755.
`O=c1oc2ccccc2c(O)c1Cc1c(O)c2ccccc2oc1=O` [Dicumarol] gave a cell viability of 0.905.
With `C=C1C[C@@]23CC[C@H]4[C@@](C)(CCC[C@@]4(C)C(=O)O)[C@@H]2CC[C@]1(O[C@@H]1O[C@@H](CO)[C@@H](O)[C@H](O)[C@@H]1O[C@@H]1O[C@@H](CO)[C@@H](O)[C@H](O)[C@@H]1O)C3` [steviolbioside] the cell viability was 1.02.
With `CC[C@H](C)C(=O)O[C@H]1CCC=C2C=C[C@H](C)[C@H](CC[C@@H]3C[C@@H](O)CC(=O)O3)[C@H]21` [Mevastatin] the cell viability was 1.12.
For `O=C(/C=C/c1ccc(O)c(O)c1)OCCc1ccccc1` [Caffeic Acid Phenethyl Ester], the cell viability was 0.995.
`C=CC(=O)Nc1cccc(Oc2nc(Nc3ccc(N4CCN(C)CC4)cc3OC)ncc2Cl)c1` gave a cell viability of 1.09.
Molecule `O=c1cc(-c2ccc(O[C@@H]3O[C@H](CO)[C@@H](O)[C@H](O)[C@H]3O)cc2)oc2cc(O)c([C@@H]3O[C@H](CO)[C@@H](O)[C@H](O)[C@H]3O[C@@H]3OC[C@H](O)[C@H](O)[C@H]3O)c(O)c12` [Vaccarin] has a cell viability of 0.919.
`NCC(O)CC(=O)O` (stereo unspecified) [4-Amino-3-hydroxybutyric Acid] showed a cell viability of 1.13.
`CC(=O)OCC(CCn1cnc2cnc(N)nc21)COC(C)=O` [Famciclovir] gave a cell viability of 0.957.
`NNc1nncc2ccccc12` [Hydralazine hydrochloride] showed a cell viability of 0.782.
For `NC(=O)c1ccccc1Nc1ccnc(Nc2cccc(O)c2)n1`, the cell viability was 0.931.
For `C[C@H](CCC(=O)O)[C@H]1CC[C@H]2[C@@H]3[C@H](O)C[C@@H]4C[C@H](O)CC[C@]4(C)[C@H]3CC[C@]12C` [Chenodeoxycholic acid], the cell viability was 1.07.
With `CN1CCN(c2c(F)cc3c(=O)c(C(=O)O)cn(CCF)c3c2F)CC1` [Fleroxacin] the cell viability was 0.9.
`O=C1C[C@@H](c2ccc(O)cc2)Oc2cc(O)cc(O)c21` [Naringenin] showed a cell viability of 0.983.
For `c1ccc([C@H]2CN3CCSC3=N2)cc1` [Levamisole hydrochloride], the cell viability was 0.884.
Work on `COC(=O)C1=CO[C@@H](O[C@@H]2O[C@H](CO)[C@@H](O)[C@H](O)[C@H]2O)[C@H]2[C@@H]1[C@H](O)C[C@]2(C)O` [Shanzhiside methyl ester] yielded a cell viability of 0.951.
`O=S(=O)(O)c1cc(O)ccc1O` [Ethamsylate] gave a cell viability of 1.2.
With `Cc1ccc(C(C)C)cc1O` [Carvacrol] the cell viability was 1.03.
Molecule `CCOC(=O)[C@H](CCc1ccccc1)N[C@H]1CS[C@H](c2cccs2)CN(CC(=O)O)C1=O` [Temocapril HCl] has a cell viability of 1.05.
Work on `O=C1OCCN1/N=C/c1ccc([N+](=O)[O-])o1` [Furazolidone] yielded a cell viability of 1.1.
For `COc1ccc(C2CNC(=O)C2)cc1OC1CCCC1` (stereo unspecified) [Rolipram], the cell viability was 1.
